This is one part of the list.

This assay concerns the target T1, OsWOX13 (Oryza sativa, UniProt Q5QMM3 1-267).
T1 sequence: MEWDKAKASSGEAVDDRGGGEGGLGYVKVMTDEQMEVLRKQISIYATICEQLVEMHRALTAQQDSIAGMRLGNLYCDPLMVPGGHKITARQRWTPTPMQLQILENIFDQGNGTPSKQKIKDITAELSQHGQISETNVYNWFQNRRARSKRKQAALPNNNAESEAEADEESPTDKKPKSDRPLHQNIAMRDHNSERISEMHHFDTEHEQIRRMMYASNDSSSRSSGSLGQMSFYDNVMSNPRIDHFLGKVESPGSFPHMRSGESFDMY
Put plainly: protein-binding microarray (RPBM); PBS, 2% BSA, 51.3 ng/ul salmon testes DNA, 50 uM zinc acetate, 200 nM TF, 25 C, 1 h; high values mean tight binding. The note with it: protein: recombinant; tags: N-terminal polyhistidine and DsRed monomer fusion (pET32a); label: CyDye5-dUTP incorporated in the synthesized complementary strand; 3' TTTTT single-stranded linker to array surface; dsDNA, one strand shown. The procedure, abridged: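 The binding signal is fluorescence intensity per feature, in arbitrary units, read on an Axon 4000B scanner. Polyhistidine- and DsRed-tagged transcription factors (N-terminal fusions) from E. coli BL21-CodonPlus were purified on Ni–NTA and applied at 200 nM for 1 h at 25 °C to a double-stranded, BSA-blocked custom Agilent array in buffer with 50 µM zinc acetate.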
For the sequence “ACTGCTGGTAATTGCACAGTTTAATTACCAGCTAATGCATCGGAGTCACCTAGTGCAG”, the binding signal is 19300 fluorescence intensity (a.u.).
With “ATTATTAATTAGGGAAGCGGAGGAACTACAGCAGATGTTACGGAGTCACCTAGTGCAG” the figure was 10700 fluorescence intensity (a.u.); with “ACCTTGATGACGATTTTATTGAAGAAGAAGAAACAAGACACGGAGTCACCTAGTGCAG”, 14700 fluorescence intensity (a.u.); with “CTTGATGATTTTATTTATAAAGGTATCAGTTCCAGGCTACCGGAGTCACCTAGTGCAG”, 27100 fluorescence intensity (a.u.).
As for “GAGAAAATAATAGATTAGTGAGGCTGACATGTGGGGCCACCGGAGTCACCTAGTGCAG”, the figure is 12600 fluorescence intensity (a.u.); as for “GTTGATGGACAGGGAGGGAGGCAAGTGGGGCTGTGAATTCCGGAGTCACCTAGTGCAG”, 16600 fluorescence intensity (a.u.); as for “ACTAAATTTATATCGAGGGGTGAACATATAGTGAAAATAACGGAGTCACCTAGTGCAG”, 5540 fluorescence intensity (a.u.).
With “TTTAAATGTGATGATTTGTTAGTGGATGATGATGTATCATCGGAGTCACCTAGTGCAG” the figure was 24000 fluorescence intensity (a.u.).
In the case of “TTATAATTGGAAAATAAATGAAGGGTTATAATTAAATGAACGGAGTCACCTAGTGCAG”, the binding signal was 12000 fluorescence intensity (a.u.).
Take “TATTAATTATGCTCAATAGATTCGTCCCGTGAATTAGTCCCGGAGTCACCTAGTGCAG”: the binding signal is 23900 fluorescence intensity (a.u.).
As for “AAAGATAATAATCATAAATGGAAAGAGTGGAAAGAGAAGACGGAGTCACCTAGTGCAG”, the figure is 3320 fluorescence intensity (a.u.); as for “TATCCCTAATTATATAGGTTAGTCTATGTTTTATTCTCAACGGAGTCACCTAGTGCAG”, 9650 fluorescence intensity (a.u.); as for “CATGATTAATCAAGTTAATTATTATACACTAAATATTGGACGGAGTCACCTAGTGCAG”, 59600 fluorescence intensity (a.u.).
With “GCGAAGATTGTAAACACAAACTTAGATGGGTTCATTAGTTCGGAGTCACCTAGTGCAG” the figure was 4960 fluorescence intensity (a.u.); with “GAACTTCCAAATTAGTTTCTAATGACACACAAATCGAGACCGGAGTCACCTAGTGCAG”, 4800 fluorescence intensity (a.u.); with “AAAATAAATTGAAACCAACTCTTAAATCCGATCTATAGTACGGAGTCACCTAGTGCAG”, 13400 fluorescence intensity (a.u.).
In the case of “AACTAATCAGGGCTTTAGTTTATTTAAGTTTGAGATGGGGCGGAGTCACCTAGTGCAG”, the binding signal was 3830 fluorescence intensity (a.u.).
Consider “GAGCAAAACAATAATTAAATATATTTTGATAATAAATTTGCGGAGTCACCTAGTGCAG”, for which the binding signal is 3560 fluorescence intensity (a.u.).
As for “CTTAATGAAATAAAGCATGGGGCTAAGCCTGATGTTGTTGCGGAGTCACCTAGTGCAG”, the figure is 3430 fluorescence intensity (a.u.); as for “AATAATTGACTGGTAGTGCATGTACTCCTCTTCCTATACTCGGAGTCACCTAGTGCAG”, 48300 fluorescence intensity (a.u.); as for “GTCGAATTTAATTGGTCTTCGAGTTTCGCCGGTATTTTCTCGGAGTCACCTAGTGCAG”, 18000 fluorescence intensity (a.u.).
As for “GGCTAATCATGGCCTAATTAGGCTCAAAAGATTCGTCTCGCGGAGTCACCTAGTGCAG”, the figure is 33200 fluorescence intensity (a.u.).
As for “TGATACAATCATCTCTATGATTGCCTCTAGGGCATATCACCGGAGTCACCTAGTGCAG”, the figure is 40400 fluorescence intensity (a.u.); as for “TTCAATGACAAAATCAATTAATTATCACTAGGATTTTGAACGGAGTCACCTAGTGCAG”, 42600 fluorescence intensity (a.u.); as for “GAATTAATTAAAATTCGGAAAGAAATTGGCAAACACTAAACGGAGTCACCTAGTGCAG”, 15600 fluorescence intensity (a.u.).
On to “GAGTAAACTGAAAGAAACAGATAATTTATTAAAGTAGCTTCGGAGTCACCTAGTGCAG”, for which the binding signal was 21900 fluorescence intensity (a.u.).
Take “CATGCCTTGATTATTGTTTATCCCTTATTCCTTCGTAACCCGGAGTCACCTAGTGCAG”: the binding signal was 16800 fluorescence intensity (a.u.).
Consider “TATGATTGATAGATTCTTAGTATTTGGGTGGCTTTTCGTACGGAGTCACCTAGTGCAG”, for which the binding signal was 50400 fluorescence intensity (a.u.).
For the sequence “GAATAATCAATTGCCGAATACGTTCTGGACATGGATATTGCGGAGTCACCTAGTGCAG”, the binding signal was 6880 fluorescence intensity (a.u.).
With “CGCCAAATTGCAATGGAGGCTAATTCCCTTCCAGTACTACCGGAGTCACCTAGTGCAG” the figure was 4440 fluorescence intensity (a.u.); with “CACACGTTGATTAATGCGAGGAATTTCTTTTGTTTACAACCGGAGTCACCTAGTGCAG”, 17300 fluorescence intensity (a.u.).
As for “ATCCATAATTAGCCATAAGTGCTACAGTAACCCACATATGCGGAGTCACCTAGTGCAG”, the figure is 13300 fluorescence intensity (a.u.).
As for “CTGATTACTGTGCGCGAGACTACGTTTCAGTTGTGCTTGTCGGAGTCACCTAGTGCAG”, the figure is 8560 fluorescence intensity (a.u.); as for “GTATGTTATTATATCAATTAGATTTATGCTAGCACTGTCGCGGAGTCACCTAGTGCAG”, 15200 fluorescence intensity (a.u.).
In the case of “CTCTAAAATGGATGATTTGTGCACAGTGAATAGGTACTGGCGGAGTCACCTAGTGCAG”, the binding signal is 13600 fluorescence intensity (a.u.).
With “TTAATTACTTTGCAAGACATTTCTTTATCTGAATACAGGTCGGAGTCACCTAGTGCAG” the figure was 3910 fluorescence intensity (a.u.).
As for “GCATAATGCATTAATTTATATATATGAATAGTAGTCGCTCCGGAGTCACCTAGTGCAG”, the figure is 18300 fluorescence intensity (a.u.); as for “CCACCACCACGTAATTAACGCTGCCTCGCTGTTAATGTTCCGGAGTCACCTAGTGCAG”, 3500 fluorescence intensity (a.u.).
Consider “ACAACAACAGCTTTGATCAATCAATCCATCAACTCAGGTTCGGAGTCACCTAGTGCAG”, for which the binding signal was 11400 fluorescence intensity (a.u.).
With “TAAGCTAATTTGACCGCTGAAAGTGATGGAAAGCAAGCAACGGAGTCACCTAGTGCAG” the figure was 4480 fluorescence intensity (a.u.).
With “TTTGGATTGAGGGACGATTTTGTAATTCGATGACAAGTTGCGGAGTCACCTAGTGCAG” the figure was 10400 fluorescence intensity (a.u.); with “GACCAAGAAATAATTATTATCATCTTGTAGTTTGGATCATCGGAGTCACCTAGTGCAG”, 4500 fluorescence intensity (a.u.).

The record behind these values is paper PMC7819943, “Rice protein-binding microarrays: a tool to detect cis-acting elements near promoter regions in rice”.
